# PubChem BioAssay AID624296 (National Center for Advancing Translational Sciences (NCATS), 2012)
# The whole screen tested about 350,000 compounds, of which about 9,900 (2.8%) were called active. The inconclusive results got no clear call from the source; some entries with a clear call stand among them for comparison. Calls come from the whole dose curve; as a rule, active = well fitted activation curve with a large enough effect; inconclusive = small, poorly fitted or top-dose-only effect; inactive = no such curve, though single readings can be large or run the other way. No potency is given beside an inconclusive call; the fits are too rough.
# Experiment: A quantitative high throughput screen for small molecules that induce DNA re-replication in MCF 10a normal breast cells. Note: nearly all actives have a fitted effect of over 50% in size.
# Details: MCF 10A DNA re-replication, Hoechst nuclear intensity, 48 h; series mostly up to 46.1 µM
# Potency is the fitted concentration of half-maximal effect; tags give direction and shape of the fitted curve.
row,SMILES,Potency
1,CCN(CC)c1ccc(C(=O)N/N=C/c2ccc(OC)cc2OC)cc1,"inconclusive [activator, single point]"
2,COc1ccc(-c2cc(-c3ccc(C)cc3)n[nH]2)c(O)c1,inactive
3,Cc1nc2ccccc2n1CC(=O)NC(C)C1CC2CCC1C2 (configuration not stated),"inconclusive [activator, partial curve, poor fit]"
4,CCCNC(=O)CN1CCC(c2nc3ccccc3[nH]2)CC1,"inconclusive [activator, single point]"
5,CCCn1c(CNc2ccc(Br)cc2)nc2ccccc21,"inconclusive [activator, full curve, poor fit]"
6,COc1ccc([N+](=O)[O-])cc1/C=N/NC(=O)c1nonc1N,active: 16.4 µM
7,Cc1[nH]n(-c2ccccc2)c(=O)c1N=Nc1ccc2c(c1)OCCO2,inactive
8,CC1CCc2c(sc(NC(=O)c3ccc(N4C(=O)CCC4=O)cc3)c2C(N)=O)C1 (configuration not stated),"inconclusive [activator, single point]"
9,COc1ccc(CCNC(=O)C(=O)NCC2CCCN2S(=O)(=O)c2ccccc2)cc1 (configuration not stated),"inconclusive [activator, single point]"
10,O=C(COC(=O)Cc1c(F)cccc1Cl)NC(=O)Nc1ccccc1F,inactive
11,O=P(O)(O)C(O)(Cc1cccnc1)P(=O)(O)O,inactive
12,Cc1cc(C)nc(SCc2nnc(SCc3ccccc3Cl)o2)n1,"inconclusive [activator, single point]"
13,CCn1c(CC(C)C)n[nH]c1=S,inactive
14,Cc1cccc(-c2noc(CNC(=O)c3ccoc3C)n2)c1,active: 20.6 µM
15,Cc1cc(-c2ccc(NS(=O)(=O)c3ccccc3)c(C)c2)ccc1NS(=O)(=O)c1ccccc1,"inconclusive [activator, partial curve, poor fit]"
16,O=C(COc1ccc(S(=O)(=O)N2CCOCC2)cc1)NC1CCCCC1,"inconclusive [activator, partial curve, poor fit]"
17,COc1ccc(S(=O)(=O)N(Cc2cccs2)C2CCCC2)cc1,"inconclusive [activator, partial curve, poor fit]"
18,Cc1snc(SCC(=O)N/N=C(\N)COc2ccc(F)cc2)c1C#N,inactive
19,CCn1cc(C(=O)N2CCc3ccccc32)c(=O)c2cc(S(=O)(=O)N(C)C3CCCCC3)ccc21,"inconclusive [activator, single point]"
20,Cn1c(=O)c2c(nc(NCCOc3ccc(C(C)(C)C)cc3)n2C)n(C)c1=O,active: 16.4 µM
21,O=C1C2CCCN2C(c2ccccc2)N1c1ccc(Cl)cc1 (configuration not stated),"inconclusive [activator, single point]"
22,Cc1ccc(C(=O)CN2/C(=C(\O)c3ccccc3)C(=O)c3ccccc3S2(=O)=O)c(C)c1,"inconclusive [activator, single point]"
23,Cc1ccc(/C=C\c2nccc3c2[nH]c2ccccc23)cc1,active: 9.2 µM
24,Cc1ccc(CC(=O)NCc2ccc(Cl)cc2)cc1,active: 7.31 µM

row,SMILES,Potency
1,Cc1cc(C)nc(NC(=O)c2c(F)c(F)c(F)c(C(=O)Nc3cc(C)cc(C)n3)c2F)c1,active: 8.2 µM
2,Cn1c2ccccc2c(=O)c2ccc(F)cc21,"inconclusive [activator, single point]"
3,C=CCNC(=S)N1CCN(c2ncc(C(F)(F)F)cc2Cl)CC1,inactive
4,O=C1S/C(=C\c2ccc(N3CCOCC3)o2)C(=O)N1Cc1ccc(F)cc1,"inconclusive [activator, partial curve, poor fit]"
5,COC(=O)c1sccc1NC(=O)C1CC=CCC1C(=O)O (configuration not stated),"inconclusive [activator, partial curve, poor fit]"
6,COc1cc(NC(=O)C2CCN(c3cnccn3)CC2)cc(OC)c1OC,inactive
7,CC(C)Cc1ccc(CN2CCCC(NC(=O)CCCN3CCCC3=O)C2)cc1 (configuration not stated),inactive
8,O=C(N/N=C/c1sc(N2CCOCC2)nc1-c1ccccc1)c1cccc(S(=O)(=O)N2CCCC2)c1,active: 14.6 µM
9,CCOC(=O)COc1c(C=O)cc(Br)cc1OC,"inconclusive [activator, partial curve, poor fit]"
10,COc1ccc2[nH]cc(CCNC(=O)Cn3cc(C)c(=O)[nH]c3=O)c2c1,"inconclusive [activator, full curve]"
11,CCOC(=O)N1CCN(C(=O)CSCC(=O)N=c2sc3ccccc3n2C)CC1,inactive
12,N/C(=N\OC(=O)c1ccc2c(c1)OCO2)c1cccc([N+](=O)[O-])c1,inactive
13,CCN1CCN(C(=S)Nc2cccc([N+](=O)[O-])c2)CC1,"inconclusive [activator, partial curve, poor fit]"
14,Cc1ccc(S(=O)(=O)/N=C(/Sc2ccccc2C(=O)O)c2ccccc2)cc1,inactive
15,CC(C)(C)NC(=O)CN(C(=O)C(=O)Nc1ccc2c(c1)OCCO2)C(C)(C)C,inactive
16,C=C(C)C1CC=C(C)/C(=N/Nc2ccccc2[N+](=O)[O-])C1 (configuration not stated),"inconclusive [activator, single point]"
17,CC1=C/C(=N\OS(=O)(=O)c2ccccc2)C(C(C)C)=CC1=O,active: 4.11 µM
18,CCOc1cc(/C=N/O)cc(Br)c1OCc1ccc(Cl)cc1,active: 11.2 µM
19,O=C(Nn1c(O)c(C=C2N=c3ccccc3=N2)sc1=S)c1ccccc1,"inconclusive [activator, partial curve, poor fit]"
20,C=CCOc1ccc(C(=O)/C=C2/C(=O)Nc3ccccc32)cc1,"inconclusive [activator, single point]"
21,COc1ccc(C(=O)/C=C2/Sc3cc4c(cc3N2C)OCO4)cc1,"inconclusive [activator, full curve, poor fit]"
22,CC[C@H]1C(O)C[C@H]2CCN3C(=O)CCC[C@H]1[C@H]23 (some centres not stated),inactive
23,CCCc1cc(=O)[nH]c(Nc2ccc(N3CCCCC3)cc2)n1,inactive
